Data from publication PMC11995724, “Antibiotic target discovery by integrated phenotypic and activity-based profiling of electrophilic fragments” (Cell chemical biology, 2025).
Hit rate of the full screen: of about 3,200 compounds, about 75 (2%) showed an effect of 50% or more. This is one part of the list.

tested on: T1, S. aureus MSSA476; set-up: species or system S. aureus MSSA476 (TSB) or V. cholerae SAD30 (LB); 384-well bacterial growth screen at 25 uM, OD600 relative to DMSO control; settings: relative growth, OD600, TSB; 25 µM; inhibitor
T1 construct: MSSA476

Row | Compound | % of control remaining [%]
1 | Cc1cc(C)n(C2CN(C(=O)C(C)Cl)C2)n1 (stereo not shown) [7-F15, 2-chloro-1-[3-(3,5-dimethyl-1H-pyrazol-1-yl)azetidin-1-yl]propan-1-one] | 104.239
2 | C=CC(=O)Nc1c(OC)nc(Cl)nc1OC [1-B14, N-(2-chloro-4,6-dimethoxypyrimidin-5-yl)prop-2-enamide] | 133.978
3 | Cc1ccc(F)cc1NC(=O)CCl [4-O03, 2-chloro-N-(5-fluoro-2-methylphenyl)acetamide] | 84.2306
4 | CC(Cl)C(=O)NC(C)c1ccns1 (stereo not shown) [6-P12, 2-chloro-N-[1-(1,2-thiazol-5-yl)ethyl]propanamide] | 84.3415
5 | O=C(CCl)Nc1cc(Cl)c(Cl)cc1Cl [4-B06, 2-chloro-N-(2,4,5-trichlorophenyl)acetamide] | 85.7551
6 | COc1ccc(C(=O)CCl)cc1Cl [10-D10, 2-chloro-1-(3-chloro-4-methoxyphenyl)ethan-1-one] | -0.3125
7 | Cl.O=C(CCl)Nc1cccc(CN2CCSCC2)c1 [5-J14, 2-chloro-N-{3-[(thiomorpholin-4-yl)methyl]phenyl}acetamide hydrochloride] | 89.2532
8 | O=C(CCl)N[C@H]1CCCc2ccccc21 [6-I21, 2-chloro-N-[(1S)-1,2,3,4-tetrahydronaphthalen-1-yl]acetamide] | 83.3171
9 | C=CC(=O)N(Cc1ccc(F)c(C)c1)CC1(O)CCSCC1 [2-E13, N-[(4-fluoro-3-methylphenyl)methyl]-N-[(4-hydroxythian-4-yl)methyl]prop-2-enamide] | 129.504
10 | CN(CC(=O)Nc1c(Cl)cccc1Cl)C(=O)CCl [6-M05, 2-chloro-N-{[(2,6-dichlorophenyl)carbamoyl]methyl}-N-methylacetamide] | 97.3171
11 | C=CC(=O)N1CCC(C(=O)N(C)C(C)CC(N)=O)CC1 (stereo not shown) [2-K20, 3-{N-methyl-1-[1-(prop-2-enoyl)piperidin-4-yl]formamido}butanamide] | 98.8686
12 | CC(C)n1ccnc1C(=O)CCl [10-H10, 2-chloro-1-[1-(propan-2-yl)-1H-imidazol-2-yl]ethan-1-one] | 2.1875
13 | C=CC(=O)NCc1ccccc1S(=O)(=O)NC(C)(C)C [1-J03, N-{[2-(tert-butylsulfamoyl)phenyl]methyl}prop-2-enamide] | 111.121
14 | CC(Cl)C(=O)NCC(C)c1nncn1C (stereo not shown) [7-A07, 2-chloro-N-[2-(4-methyl-4H-1,2,4-triazol-3-yl)propyl]propanamide] | 92.3077
15 | Cc1ccsc1C=C(C#N)C(=O)Nc1c(Cl)cccc1Cl [8-D22, 2-cyano-N-(2,6-dichlorophenyl)-3-(3-methylthiophen-2-yl)prop-2-enamide] | 73.6929
16 | C=CC(=O)NCCc1csc(-c2ccccc2)n1 [1-A13, N-[2-(2-phenyl-1,3-thiazol-4-yl)ethyl]prop-2-enamide] | 105.495
17 | Cc1cc(C)c(NC(=O)C(C#N)=Cc2ccc(C)o2)c(C)c1 [9-I17, 2-cyano-3-(5-methylfuran-2-yl)-N-(2,4,6-trimethylphenyl)prop-2-enamide] | 100.974
18 | O=C1C=CC(=O)N1CCCCO [10-K07, 1-(4-hydroxybutyl)-2,5-dihydro-1H-pyrrole-2,5-dione] | 123.75
19 | C=CC(=O)N(Cc1cn2ccccc2n1)C1CC1 [3-J21, N-cyclopropyl-N-({imidazo[1,2-a]pyridin-2-yl}methyl)prop-2-enamide] | 100.305
20 | COc1cc(C=C(C#N)C(=O)NC2CC2)cc(OC)c1O [9-O19, 2-cyano-N-cyclopropyl-3-(4-hydroxy-3,5-dimethoxyphenyl)prop-2-enamide] | 119.85
21 | O=CN1CCc2cc(C(=O)CCl)ccc21 [10-K20, 5-(2-chloroacetyl)-2,3-dihydro-1H-indole-1-carbaldehyde] | 102.813
22 | Cc1cc(C(=O)CCl)c(C)n1-c1ccc(Cl)cc1 [10-H18, 2-chloro-1-[1-(4-chlorophenyl)-2,5-dimethyl-1H-pyrrol-3-yl]ethan-1-one] | -0.625
23 | CC(=O)N1CCC(NC(=O)C(C)Cl)c2ccc(F)cc2C1 (stereo not shown) [7-I16, N-(2-acetyl-8-fluoro-2,3,4,5-tetrahydro-1H-2-benzazepin-5-yl)-2-chloropropanamide] | 108.006

Row | Compound | % of control remaining [%]
24 | O=C(CCl)NCC(=O)N1CCC(Cc2ccccc2)CC1 [6-F04, N-[2-(4-benzylpiperidin-1-yl)-2-oxoethyl]-2-chloroacetamide] | 90.4878
25 | O=C(CCl)N(CC1=CCCOC1)Cc1ccccc1 [7-J20, N-benzyl-2-chloro-N-[(5,6-dihydro-2H-pyran-3-yl)methyl]acetamide] | 108.948
26 | C=CC(=O)N1CCC(C(=O)Nc2cccc(-c3n[nH]c(C)n3)c2)CC1 [2-J09, N-[3-(5-methyl-1H-1,2,4-triazol-3-yl)phenyl]-1-(prop-2-enoyl)piperidine-4-carboxamide] | 125.674
27 | Cc1ccc(C)c(C=C(C#N)C(=O)Nc2nccs2)c1 [9-N13, 2-cyano-3-(2,5-dimethylphenyl)-N-(1,3-thiazol-2-yl)prop-2-enamide] | 100.375
28 | C=CC(=O)NCc1nnc2n1CCCCC2 [3-N07, N-({5H,6H,7H,8H,9H-[1,2,4]triazolo[4,3-a]azepin-3-yl}methyl)prop-2-enamide] | 121.202
29 | O=C(CCl)c1ccc(Cl)c(Cl)c1 [10-L16, 2-chloro-1-(3,4-dichlorophenyl)ethan-1-one] | 5
30 | O=C(NC1CC1)C1(C(=O)N2CCSSCC2)CCC1 [10-B21, N-cyclopropyl-1-(1,2,5-dithiazepane-5-carbonyl)cyclobutane-1-carboxamide] | 110.313
31 | CC(Cl)C(=O)N1N=C(c2ccc(Cl)cc2)CC1c1ccco1 (stereo not shown) [5-H18, 2-chloro-1-[3-(4-chlorophenyl)-5-(furan-2-yl)-4,5-dihydro-1H-pyrazol-1-yl]propan-1-one] | 100.546
32 | COc1ccc(C=C(C#N)C(=O)NC(C)c2ccccc2)cc1O (stereo not shown) [8-J18, 2-cyano-3-(3-hydroxy-4-methoxyphenyl)-N-(1-phenylethyl)prop-2-enamide] | 122.158
33 | CSc1ccccc1NC(=O)CCl [4-E11, 2-chloro-N-[2-(methylsulfanyl)phenyl]acetamide] | 101
34 | O=C(CCl)NCCc1ncc(F)cn1 [6-E19, 2-chloro-N-[2-(5-fluoropyrimidin-2-yl)ethyl]acetamide] | 88.439
35 | CC(C)NC(=O)C(C#N)=Cc1c(Cl)nc2ccccn12 [9-A11, 3-{2-chloroimidazo[1,2-a]pyridin-3-yl}-2-cyano-N-(propan-2-yl)prop-2-enamide] | 90.7865
36 | CC1CN(c2cccc(CN(C)C(=O)C(C)Cl)c2)S(=O)(=O)C1 (stereo not shown) [6-L18, 2-chloro-N-methyl-N-{[3-(4-methyl-1,1-dioxo-1lambda6,2-thiazolidin-2-yl)phenyl]methyl}propanamide] | 90.4878
37 | NC(=O)CCN(C(=O)CCl)c1ccc(F)cc1 [5-C03, 3-[2-chloro-N-(4-fluorophenyl)acetamido]propanamide] | 83.4244
38 | N#CC(=Cc1ccc(OC(F)F)cc1)C(=O)N1CCCCC1 [8-J20, 3-[4-(difluoromethoxy)phenyl]-2-(piperidine-1-carbonyl)prop-2-enenitrile] | 117.178
39 | C=CC(=O)N1CCN(S(=O)(=O)CC)CC1 [3-D20, 1-[4-(ethanesulfonyl)piperazin-1-yl]prop-2-en-1-one] | 89.1598
40 | COc1ccccc1NC(=O)C(C#N)=Cc1sccc1C [9-P19, 2-cyano-N-(2-methoxyphenyl)-3-(3-methylthiophen-2-yl)prop-2-enamide] | 76.7041
41 | C=CC(=O)N1CCC(C(=O)Nc2nc3cc(F)c(C)cc3s2)CC1 [2-K15, N-(5-fluoro-6-methyl-1,3-benzothiazol-2-yl)-1-(prop-2-enoyl)piperidine-4-carboxamide] | 108.616
42 | C=CC(=O)NC(=O)NCc1ccccc1 [1-I04, 1-benzyl-3-(prop-2-enoyl)urea] | 108.308
43 | COc1cc(C)c(C=C(C#N)C(=O)Nc2ccc(C)cc2)cc1C(C)C [9-C04, 2-cyano-3-[4-methoxy-2-methyl-5-(propan-2-yl)phenyl]-N-(4-methylphenyl)prop-2-enamide] | 99.176
44 | Cc1cc(C)c(NC(=O)C(C#N)=Cc2cccnc2)c(C)c1 [8-B17, 2-cyano-3-(pyridin-3-yl)-N-(2,4,6-trimethylphenyl)prop-2-enamide] | 93.9419
45 | Cc1cc(C(C)(C)C)cc(C)c1CCNC(=O)CCl [4-A16, N-[2-(4-tert-butyl-2,6-dimethylphenyl)ethyl]-2-chloroacetamide] | 99.4759
46 | CCOc1cc(C=C(C#N)C(=O)N2CCCC2)cc(Cl)c1O [8-M06, 3-(3-chloro-5-ethoxy-4-hydroxyphenyl)-2-(pyrrolidine-1-carbonyl)prop-2-enenitrile] | 137.095
